{
  "source": "PubChem BioAssay AID1240",
  "about": "(Sanford-Burnham Center for Chemical Genomics, 2008)",
  "note": "Screen size: about 50,000 compounds; about 800 (1.6%) showed an effect of 50% or more. The list shows a part of the results.",
  "data": [
    {"molecular_target": "Bcl-2-like protein 10 (Homo sapiens) (UniProt Q9HD36)", "sequence (Q9HD36 whole entry, looked up)": "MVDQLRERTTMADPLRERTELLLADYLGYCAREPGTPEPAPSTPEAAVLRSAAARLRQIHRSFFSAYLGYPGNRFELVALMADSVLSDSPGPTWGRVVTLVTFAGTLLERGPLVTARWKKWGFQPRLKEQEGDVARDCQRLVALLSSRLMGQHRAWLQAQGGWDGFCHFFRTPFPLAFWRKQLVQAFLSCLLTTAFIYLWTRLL", "experiment": "TR3 peptide-Bcl-B binding displacers, biochemical primary FP assay, phenotype converters (AID 1240);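 note: 0% = Bcl-B with tracer peptide and DMSO and 100% = tracer peptide lacking Bcl-B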", "details": "GST-Bcl-B / FITC-TR3 peptide fluorescence polarization; stronger effect = higher value; compound at 3.75 mg/L", "units": {"displacement": "%"}, "values": [
      {"smiles": "CCc1ccc(OCC(=O)Nc2ccc(O)c(-c3nc4ccccc4s3)c2)cc1", "displacement": 12.7},
      {"smiles": "O=C(NCCO)C1COc2ccccc2O1", "note": "(stereo not drawn)", "displacement": 4},
      {"smiles": "O=c1c2c(nc3cc(-c4cccc(Cl)c4)[nH]n13)CCS2", "displacement": 34.8},
      {"smiles": "Cc1ccc(-c2cc(C(F)(F)F)n3nc(C(=O)NCc4cccs4)cc3n2)cc1", "displacement": 9.9},
      {"smiles": "CCOC(=O)C1CCN(C(=O)Nc2ccc(Cl)cc2)CC1", "displacement": 13.2},
      {"smiles": "COc1ccc(CC(=O)N2CC(C)CC(C)C2)cc1", "note": "(stereo not drawn)", "displacement": 8.9},
      {"smiles": "Cc1ccc(NC(=S)NC(=O)c2ccccc2)cc1Br", "displacement": 9},
      {"smiles": "CCCCOc1ccc(C(=S)N2CCOCC2)cc1", "displacement": 11.2},
      {"smiles": "COC(=O)CN(c1ccc(F)cc1)S(=O)(=O)c1ccccc1", "displacement": 12.2},
      {"smiles": "Cc1ccccc1OCC(=O)NCc1ccccn1", "displacement": -8},
      {"smiles": "O=C(c1cccc(Cl)c1)N1CCN(C2CCN(Cc3ccccc3)CC2)CC1", "displacement": -10.8},
      {"smiles": "Cc1nnc(C)n1/N=C/c1ccccc1Cl", "displacement": -2.9},
      {"smiles": "O=C(COc1ccc2ccc(=O)oc2c1)c1ccc(-c2ccccc2)cc1", "displacement": 13.1},
      {"smiles": "O=C(CSc1nnc(Cc2ccccc2)o1)c1ccc(Cl)cc1", "displacement": 13.1},
      {"smiles": "CCN(CC)CC(C(=O)N(CC)CC)P(=O)(c1ccccc1)c1ccccc1", "note": "(stereo not drawn)", "displacement": 0.4},
      {"smiles": "O=C(Cn1cc(/C=C2\\NC(=O)NC2=O)c2ccccc21)Nc1ccccc1", "displacement": 7.5},
      {"smiles": "O=C1/C(=C\\c2cccs2)CC2CC1C/C(=C/c1cccs1)C2=O", "displacement": 2.6},
      {"smiles": "CC(=O)c1ccc(NC(=O)c2ccc(CN3CCc4ccccc4C3)cc2)cc1", "displacement": 7},
      {"smiles": "C/C(=N\\NC(=O)c1ccc(C)cc1)c1ccc(Cl)cc1", "displacement": 14.8},
      {"smiles": "O=C(Nc1nc2ccccc2s1)c1ccc(-c2ccccc2)cc1", "displacement": 5.2},
      {"smiles": "CCOc1cccc(C(=O)Nc2ccc(N(CC)CC)cc2)c1", "displacement": 9.5},
      {"smiles": "CC(=O)Nc1ccc(NC(=O)COc2ccc(Cl)cc2C)cc1", "displacement": -2.4},
      {"smiles": "O=C(C[n+]1cccc2ccccc21)c1cc2ccccc2oc1=O", "displacement": 24},
      {"smiles": "O=C(Cc1ccccc1)NCC1COc2ccccc2O1", "note": "(stereo not drawn)", "displacement": 3.2},
      {"smiles": "O=C(NCc1ccccc1)C1CC(=O)N(c2ccc(Br)cc2)C1", "note": "(stereo not drawn)", "displacement": -5.1},
      {"smiles": "COc1ccc(C(=O)N/C(=C/c2cccs2)C(=O)NCCN2CCOCC2)cc1", "displacement": 6.3},
      {"smiles": "COc1ccc(/C(O)=C2\\C(=O)C(=O)N(CCc3ccccc3)C2c2ccc(F)cc2)cc1", "note": "(stereo not drawn)", "displacement": 6.3},
      {"smiles": "Cc1ccc(C(=O)Nc2ccccc2C(=O)NCCC(=O)O)cc1", "displacement": -3.6},
      {"smiles": "CCCN(c1ccccc1C)S(=O)(=O)c1ccc(Cl)cc1", "displacement": 8.6},
      {"smiles": "Cc1nc(-c2ccccc2)nc(N/N=C/c2ccc(N(C)C)cc2)c1C", "displacement": -4.5},
      {"smiles": "Cc1cc(Cl)ccc1OC(C)C(=O)Nc1c(Cl)cccc1Cl", "note": "(stereo not drawn)", "displacement": 11.6},
      {"smiles": "CCN1CCc2c(sc(NC(=O)Nc3ccc(Cl)c(Cl)c3)c2C(N)=O)C1", "displacement": 111},
      {"smiles": "C=C(C)C1CCC(C)=C1CC(C)(C)/C=N\\n1cnnc1", "note": "(stereo not drawn)", "displacement": 8},
      {"smiles": "COc1ccc(CC(=O)N=Nc2c(O)n(CN3CCCC3)c3ccccc23)cc1", "displacement": -2.3},
      {"smiles": "COc1ccc(CNC(=O)CSc2nc3ccccc3[nH]2)cc1", "displacement": 8.5},
      {"smiles": "CCC(c1ccccc1)c1nnc(NC(=O)Nc2cccc(Cl)c2)s1", "note": "(stereo not drawn)", "displacement": -0.8},
      {"smiles": "COc1ccc(CN2CCN(C(=O)c3ccco3)CC2)cc1OCc1ccccc1", "displacement": -9.4},
      {"smiles": "CC(C)Cc1cc(-c2ccccc2)c(C#N)c(N)n1", "displacement": 13.1},
      {"smiles": "O=C(/C=C/c1ccco1)Nc1ccc(Cl)c(Cl)c1", "displacement": -12},
      {"smiles": "COc1cc(OC)c(NC(=O)c2ccccc2C)cc1Cl", "displacement": -12},
      {"smiles": "O=C(/C=C/c1ccc(-c2ccc(Cl)cc2Cl)o1)NCCCN1CCOCC1", "displacement": -13.4},
      {"smiles": "O=C(CSc1ccc(C(F)(F)F)cc1[N+](=O)[O-])Nc1ccccc1", "displacement": -8.7},
      {"smiles": "O=C(Nc1ccccc1)Nc1cccc2cccnc12", "displacement": -4.2},
      {"smiles": "O=C(Cc1ccc(Cl)cc1)Nc1nccs1", "displacement": 11.5},
      {"smiles": "COc1cccc(-c2cc(C(=O)O)c3cc(Br)ccc3n2)c1", "displacement": 4.5},
      {"smiles": "COc1ccc(/C(N)=N/OC(=O)COc2ccc(C)cc2Br)cc1OC", "displacement": 5.4},
      {"smiles": "CCOc1ccc(N(CC(=O)NCc2ccncc2)S(=O)(=O)c2ccccc2)cc1", "displacement": 3.7},
      {"smiles": "COc1ccccc1NC(=O)CSc1nnc(NC(=O)CSc2nnc3n(N)cnn23)s1", "displacement": -3.9},
      {"smiles": "COc1ccc([N+](=O)[O-])cc1NC(=O)C1C2CCC(C2=C(C)C)C1C(=O)O", "note": "(stereo not drawn)", "displacement": -8.2},
      {"smiles": "O=C(NCCOc1ccc(Cl)cc1)c1ccc([N+](=O)[O-])cc1", "displacement": -20.2},
      {"smiles": "COc1cc2c(cc1OC)C(C)N(CC(=O)O)CC2", "note": "(stereo not drawn)", "displacement": -18.7},
      {"smiles": "CN1C(=O)NC(=O)/C(=C\\c2ccc(N3CCCC3)cc2)C1=O", "displacement": 15.1},
      {"smiles": "COc1ccc(S(=O)(=O)Nc2nc3ccccc3s2)cc1[N+](=O)[O-]", "displacement": -6.5},
      {"smiles": "Cc1ccnc(NC(=O)/C=C/c2ccc(-c3ccccc3[N+](=O)[O-])o2)c1", "displacement": 8.7},
      {"smiles": "COCCNC(=O)c1cc2nc(-c3ccccc3)cc(-c3ccccc3)n2n1", "displacement": 14.1},
      {"smiles": "COc1ccc(OC)c(CN2CCN(Cc3ccco3)CC2)c1", "displacement": -1},
      {"smiles": "COc1ccccc1OCCNC(=O)c1cc(SC)ccc1Cl", "displacement": -7.1},
      {"smiles": "O=C(O)CC(C(=O)O)P(=O)(c1ccccc1)c1ccccc1", "note": "(stereo not drawn)", "displacement": 12.8},
      {"smiles": "CCOc1ccc2nc(Cc3ccccc3)[nH]c2c1", "displacement": -6.1},
      {"smiles": "CC1=C(C(=O)OCCc2ccccc2)C(c2ccc(F)cc2)C2=C(CCCC2=O)N1", "note": "(stereo not drawn)", "displacement": -3.8},
      {"smiles": "CCc1nnc(NS(=O)(=O)c2ccc(N=Cc3c(C)[nH]n(-c4ccc(C)cc4)c3=O)cc2)s1", "displacement": 5.9},
      {"smiles": "COC(=O)CN1C(=O)C(=C(C#N)C#N)c2ccccc21", "displacement": -10.8},
      {"smiles": "CC(=O)CC(=O)Nc1ccc(OCc2ccccc2)cc1", "displacement": -3.1},
      {"smiles": "O=C(NCCOC(=O)c1cccs1)c1cccnc1", "displacement": -7.4},
      {"smiles": "COc1ccc(CC(=O)O/N=C(\\N)c2cccnc2)cc1OC", "displacement": 8.7},
      {"smiles": "Brc1ccc2ncnc(NCCc3ccccc3)c2c1", "displacement": -5.7},
      {"smiles": "Nc1nnc(SCC(=O)c2ccc([N+](=O)[O-])cc2)s1", "displacement": 2.8},
      {"smiles": "Cc1cc(C)c2oc(-c3ccc(NC(=O)c4cccc([N+](=O)[O-])c4C)cc3)nc2c1", "displacement": -3.8},
      {"smiles": "Cc1cccc2c(=O)oc(-c3ccccc3Cl)nc12", "displacement": 4.4},
      {"smiles": "Cc1cccc(/C=C2\\C(=O)NC(=O)N(c3ccc(Cl)cc3)C2=O)c1", "displacement": -32.6},
      {"smiles": "CC(C)(C)C1=CC2(C=C(C(C)(C)C)C1=O)Nc1cccc3cccc(c13)N2", "displacement": -2},
      {"smiles": "COc1cc(C=C2C(=O)NC(=S)NC2=O)ccc1OC(C)C", "displacement": 17},
      {"smiles": "COc1ccc(C(N)=O)cc1NC(=O)c1cc(C(F)(F)F)cc(C(F)(F)F)c1", "displacement": -4.5}
    ]}
  ]
}
